Results reported in the supplement of paper PMC6135742.
“And” between values parts separate entries of the source, which are not always exact repeats. Equal values may be shown once. Where a name gives a salt, the structure may show the parent alone. ± gives the standard deviation of the averaged measurements. Over roughly 2,600 compounds, “MBP+ mature oligodendrocyte number relative to DMSO vehicle control” has its median near -0.34; the highest 2% begin near 13. The list shows a part of the results.

Tested on: jimpy (Plp1 jimpy) mouse iPSC-derived oligodendrocyte progenitor cells
Test: MBP+ mature oligodendrocyte number relative to DMSO vehicle control (SDs above negative control mean); higher = more surviving jimpy oligodendrocytes (rescue)
Conditions: 10 µM; 3 days
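Further: 10 µM single dose with 3-day oligodendrocyte differentiation.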

| Compound | MBP+ mature oligodendrocyte number |
| --- | --- |
| NC(CCCP(=O)(O)O)C(=O)O (stereo not drawn) [D(-)-2-Amino-5-phosphonopentanoic acid] | -1.43 |
| C#C[C@]1(O)CC[C@H]2[C@@H]3CCc4cc(O)ccc4[C@H]3CC[C@@]21C [Ethinyl Estradiol] | 0.433 |
| O=C(O)c1ccc(N2C(=O)/C(=C\c3ccc(-c4ccc([N+](=O)[O-])cc4)o3)C=C2c2ccccc2)cc1 | 2.49 |
| O=S(=O)(c1ccccc1)N(CC(F)(F)F)c1ccc(C(O)(C(F)(F)F)C(F)(F)F)cc1 | 4.38 |
| CCOC(=O)C1=C(C)NC(C)=C(C(=O)OCC)C1c1ccccc1/C=C/C(=O)OC(C)(C)C [Lacidipine] | -4.16 |
| Cn1c(=O)n(-c2ccc(C(C)(C)C#N)cc2)c2c3cc(-c4cnc5ccccc5c4)ccc3ncc21 [BEZ235 (NVP-BEZ235, Dactolisib)] | < -6.7 |
| O=C(O)C(Cc1c[nH]c2ccccc12)N1C(=O)c2ccccc2C1=O (stereo not given) | 1.77 |
| CCOc1cc(CC(=O)N[C@@H](CC(C)C)c2ccccc2N2CCCCC2)ccc1C(=O)O [Repaglinide] | 1.77 |
| CC1(C)CCC[C@]2(C)[C@H]3CC(=O)O[C@]3(C)CC[C@@H]12 [Sclareolide] | 5.37 |
| COc1c(N2C[C@@H]3CCCN[C@@H]3C2)c(F)cc2c(=O)c(C(=O)O)cn(C3CC3)c12 [Moxifloxacin HCl] | -0.676 |
| COc1ccc(C(=O)CC(=O)c2ccc(C(C)(C)C)cc2)cc1 [Avobenzone] | 0.0731 |
| Cc1cc(NC2CCCCC2)nc(-n2nc(C)cc2C)n1 | -3.58 |
| NCCSSCCN [Cystamine dihydrochloride] | -0.668 |
| Nc1nc2c(ncn2COCCO)c(=O)[nH]1 [Acyclovir] | -1.02 |
| Nc1nc2c(ncn2COCCO)c(=O)[nH]1 [Aciclovir] | -1.19 |
| CCCCCN(CCCCC)C(=O)C(CCC(=O)O)NC(=O)c1ccc(Cl)c(Cl)c1 (stereo not given) [Lorglumide sodium] | 0.382 |
| CS(=O)(=O)N1CCN(Cc2cc3nc(-c4cccc5[nH]ncc45)nc(N4CCOCC4)c3s2)CC1 | < -6.7 |
| COc1ccc2[nH]c([S@@+]([O-])Cc3ncc(C)c(OC)c3C)nc2c1 [Esomeprazole magnesium dihydrate] | 2.12 |
| COc1ccc2[nH]c([S@@+]([O-])Cc3ncc(C)c(OC)c3C)nc2c1 [Esomeprazole Sodium] | 2.47 |
| c1cc(-c2cnn3cc(-c4ccc(N5CCNCC5)cc4)cnc23)c2cccnc2c1 | < -6.35 |
| COC(=O)c1c(C)[nH]c(C)c1C(=O)c1ccccc1Cc1ccccc1 | 0.0316 |
| COc1cc(C(C)=O)ccc1OCCCN1CCC(c2noc3cc(F)ccc23)CC1 [Iloperidone] | -1.03 |
| CCOC(=O)[C@H](CCc1ccccc1)N[C@H]1CCCN2CCC[C@@H](C(=O)O)N2C1=O [Cilazapril Monohydrate] | -0.107 |
| CCCC1O[C@@H]2C[C@H]3[C@@H]4CCC5=CC(=O)C=C[C@]5(C)[C@H]4[C@@H](O)C[C@]3(C)[C@]2(C(=O)CO)O1 (stereo not given in full) [Budesonide] | 13.4 ± 10 |
| CN1[C@@H]2CC[C@H]1CC(OC(=O)c1c[nH]c3ccccc13)C2 (stereo not given in full) [3-Tropanyl-indole-3-carboxylate hydrochloride] | -1.25 |

| Compound | MBP+ mature oligodendrocyte number |
| --- | --- |
| CCCCCCCCCCCCCCCCCCOCC(COP(=O)([O-])OCC[N+](C)(C)C)OC (stereo not given) | -1.12 |
| CC1=C(C(=O)Nc2cc3cn[nH]c3cc2F)C(c2ccc(C(F)(F)F)cc2)CC(=O)N1 (stereo not given) | 5.35 |
| CNC(=O)c1ccccc1Nc1nc(Nc2ccc(N3CCOCC3)cc2OC)ncc1Cl | < -6.01 |
| NCC(O)(CS(=O)(=O)O)c1ccc(Cl)cc1 (stereo not given) [2-Hydroxysaclofen] | -0.904 |
| CC[C@H](NC(=O)c1c(C)c(-c2ccccc2)nc2ccccc12)c1ccccc1 | -1.61 |
| CCOC(=O)c1ncn2c1CN(C)C(=O)c1cc(F)ccc1-2 [Flumazenil] | 0.227 ± 0.17 |
| O=NN(CCCl)C(=O)NCCCl [Carmustine] | -1.1 |
| Cc1cc(C)c2c(c1)[C@@H](N(Cc1cc(C(F)(F)F)cc(C(F)(F)F)c1)c1nnn(C)n1)CCCN2C[C@H]1CC[C@H](C(=O)O)CC1 | 7.57 |
| CC(C(=O)O)c1cccc(C(=O)c2ccccc2)c1 (stereo not given) [Ketoprofen] | 0.391 ± 1.8 |
| Nc1nc(N)c2nc(CNc3ccc(C(=O)N[C@@H](CCC(=O)O)C(=O)O)cc3)cnc2n1 [Aminopterin] | -0.433 |
| CCCCN(Cc1ccc(C(=O)NO)cc1)C(=O)Nc1ccccc1 [Nexturastat A] | -4.64 |
| COC(=O)N[C@H](C(=O)N1CCC[C@H]1c1ncc(-c2ccc(-c3ccc(-c4cnc([C@@H]5CCCN5C(=O)[C@@H](NC(=O)OC)C(C)C)[nH]4)cc3)cc2)[nH]1)C(C)C | -4.43 |
| CC(C)(C)C(=O)C(Oc1ccc(Cl)cc1)n1ccnc1 (stereo not given) [Climbazole] | 38.6 |
| CC1=C(CC(=O)O)c2cc(F)ccc2/C1=C\c1ccc(S(C)(=O)=O)cc1 [Sulindac sulfone] | 8.47 |
| CC(C)N(CCCNC(=O)Nc1ccc(C(C)(C)C)cc1)C[C@H]1O[C@@H](n2cc(Br)c3c(N)ncnc32)[C@H](O)[C@@H]1O | -6.27 |
| COc1ccc(-c2csc(NC(=O)[C@H]3CCCCN3S(=O)(=O)c3ccc(C)cc3)n2)cc1 | 7.77 |
| NC(N)=NC(=O)c1nc(Cl)c(N2CCCCCC2)nc1N [5-(N,N-hexamethylene)amiloride] | -3.3 |
| O=c1cc2c(=O)oc3cc(O)c(O)oc3c2c(O)c1O [Galloflavin potassium] | 0.11 |
| NC(=O)N1C(=O)/C(=C(\O)c2cccs2)c2cc(Cl)ccc21 [Tenidap] | 0.00298 |
| CC1(C)S[C@@H]2[C@H](NC(=O)C(C(=O)O)c3ccccc3)C(=O)N2[C@H]1C(=O)O (stereo not given in full) [Carbenicillin disodium] | 1.53 |
| O=C1CN(/N=C/c2ccc(-c3ccc([N+](=O)[O-])cc3)o2)C(=O)N1 [Dantrolene sodium] | -0.23 |
| COc1cc(O)c2c(c1)C(=O)c1cc(C)cc(O)c1C2=O [Rheochrysidin] | 1.29 |
| CC(C)[C@H]1c2ccc(F)cc2CC[C@@]1(CCN(C)CCCc1nc2ccccc2[nH]1)OC(=O)C1CC1 | < -3.97 |
| CCOC(=O)n1ccn(C)c1=S [Carbimazole] | -0.1 |
| COc1cc(N2CCC(N)CC2)ccc1Nc1ncc(Cl)c(-c2c[nH]c3ccccc23)n1 | < -6.35 |

| Compound | MBP+ mature oligodendrocyte number |
| --- | --- |
| CC1(C)S[C@@H]2[C@H](NC(=O)[C@H](C(=O)O)c3ccsc3)C(=O)N2[C@H]1C(=O)O [Ticarcillin sodium] | 2.09 |
| Cc1cc(NS(=O)(=O)c2ccc(N)cc2)no1 [Sulfamethoxazole] | -0.737 |
| O=C(c1ccc2c(c1)OCCO2)N1CCCCC1 | -1.28 |
| COC(=O)C1=C(C)NC(C)=C([N+](=O)[O-])C1c1ccccc1C(F)(F)F (racemic) | -0.354 |
| CC[C@H]1OC(=O)C[C@@H](O)[C@H](C)[C@@H](O[C@@H]2O[C@H](C)[C@@H](O[C@H]3C[C@@](C)(O)[C@@H](O)[C@H](C)O3)[C@H](N(C)C)[C@H]2O)[C@@H](CC=O)C[C@@H](C)C(=O)/C=C/C(C)=C/[C@@H]1CO[C@@H]1O[C@H](C)[C@@H](O)[C@@H](OC)[C@H]1OC [Tylosin tartrate] | -2.2 |
| O=C(/C=C/c1ccc(O)c(O)c1)c1ccc(O)cc1O [Butein] | -4.58 |
| CCc1ccc2c(-c3cccc(Cl)c3)nc(=O)n(CC)c2n1 | 0.235 |
| O=C(CCCCCCC(=O)Nc1ccccc1)NO [Vorinostat (SAHA, MK0683)] | < -6.7 |
| CCNC(=O)CCC/C=C\C[C@@H]1[C@@H](/C=C/[C@@H](O)CCc2ccccc2)[C@H](O)C[C@@H]1O [Bimatoprost] | 2.55 |
| COC(=O)C1=C(C)NC(C)=C(C(=O)OC2CCCN(Cc3ccccc3)C2)C1c1cccc([N+](=O)[O-])c1 (stereo not given) [Benidipine HCl] | 5.65 |
| COC(=O)C1=C(C)NC(C)=C(C(=O)OC2CCCN(Cc3ccccc3)C2)C1c1cccc([N+](=O)[O-])c1 (stereo not given) [Benidipine hydrochloride] | 1.03 |
| Cc1ccc(NC(=O)c2cccc(N(C)C)c2)cc1NC(=O)c1ccc(O)cc1 | 14.6 |
| O=C1NCCc2[nH]c(-c3ccncc3)cc21 | -5.77 and < -3.34 |
| C[C@]12C[C@H](O)[C@H]3[C@@H](CCC4=CC(=O)CC[C@@]43C)[C@@H]1CC[C@@H]2C(=O)CO [Corticosterone] | 1.49 |
| COc1ccc(S(=O)(=O)Nc2cccnc2Nc2ccc(O)cc2)cc1 | -6.52 |
| COc1ccccc1N1CCN(CCN(C(=O)c2ccc(F)cc2)c2ccccn2)CC1 [p-MPPF dihydrochloride] | 6.54 |
| c1ccc(-c2ccccn2)nc1 [2,2'-Bipyridyl] | -0.073 |
| O=C(O)c1ccc2c(c1)nc(Nc1cccc(Cl)c1)c1ccncc12 [CX-4945 (Silmitasertib)] | < -4.81 |
| CC1(C)O[C@@H]2C[C@H]3[C@@H]4CCC5=CC(=O)C=C[C@]5(C)[C@H]4[C@@H](O)C[C@]3(C)[C@]2(C(=O)CO)O1 [Desonide] | 9.44 |
| NCCCCCNCC12CC3CC(CC(C3)C1)C2 [IEM 1754 dihydrobroMide] | -4.82 |
| Cc1cc(OCCCS(C)(=O)=O)cc(C)c1-c1cccc(COc2ccc3c(c2)OC[C@H]3CC(=O)O)c1 | -0.69 |
| CCN(CC)C(=S)SSC(=S)N(CC)CC [Disulfiram] | -1.37 |
| O=C(CCCCCN1C(=O)c2cccc3cccc(c23)C1=O)NO [Scriptaid] | -4.58 |
| C=C[C@@]1(C)CC(=O)[C@]2(O)[C@@]3(C)[C@@H](O)CCC(C)(C)[C@@H]3[C@H](O)[C@H](OC(C)=O)[C@@]2(C)O1 [Forskolin] | 3.92 ± 2 |
| COc1cc2/c(=N/c3ccc(Br)cc3F)nc[nH]c2cc1OCC1CCN(C)CC1 [Vandetanib (ZD6474)] | < -6.7 |
